Test results reported in the RNAGym collection of RNA variant scans (doi:10.1073/pnas.2313332121).
Variants at the floor of the assay are shown more often than the library holds them.

B1: TPR 5TU (parent)
chain: GGAUCUUCUCGAUCUAACAAAAAAGACAAAUCUGCCACAAAGCUUGAGAGCAUCUUCGGAUGCAGAGGCGGCAGCCUUCGGUGGCGCGAUAGCGCCAACGUUCUCAACUAUGACACGCAAAACGCGUGCUCCGUUGAAUGGAGUUUAUCAUG

Variants of: B1
Test: polymerase ribozyme fitness, log enrichment relative to wild type (log ratio); higher = more active; in vitro selection for triplet polymerase activity
In short: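 PCR was used to build mutant libraries for each subunit of a heterodimeric triplet polymerase ribozyme, which were then transcribed. A single in vitro selection round, in triplicate, used a frozen incubation at −7 °C and recovered extended constructs by gel excision, streptavidin beads and RT-PCR. Fitness is the logarithm of genotype enrichment relative to wild-type enrichment, averaged over replicates with inverse-variance weights. The logarithm is base 2, and after Illumina sequencing only genotypes with ≥10 input reads and ≥1 read per output were kept.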

Polymerase ribozyme fitness (log ratio), ≤ -4.2:
G42A C57G G68A A137C
G42A C57U A60C G84C C123G
G42A C57U C95A U109G G140U
G42A C63G C85A A121U A137U U146G
G42A C76U U82A C99U G136U
G42A C85G A122C
G42A C87U G88A A121G U148G
G42A C131G
G42A G50A G71A G80U G94C C96U C105A U127A
G42A G50C C79A C93U
G42A G50C U56A C75G C95U A121G
G42A G50U C95A A115U A119C
G42A G58C
G42A G59A G81A A107U
G42A G74A
G42A G74A C85U C114U U127G U134G U146C G152C
G42A G83U C96A
G42A G88C G92C G117A
G42A U44A A60G G67U C85A G88U G126A G136U
G42A U44G C57U G83A A110U A121U
G42A U53A U55A C116G
G42A U56A A66U A73G C79U A115G A120U A121U A150C
G42A U56A U61G C69G C85U
G42A U61G U78C G92C
G42C A47C G59A G81C C93A G94U
G42C A49G A73G G83A G136C U144A
G42C A91G C131G
G42C A110C
G42C C54U A73G A120C
G42C C63U C69U G86A
G42C C85A
G42C C87U
G42C G50A A97G A122C G133U A142C
G42C G58C C95U
G42C G62A C95U A97C
G42C G62C U134A
G42C G68U C93U C99G C131A
G42C G80U C85U
G42C G86U C95A
G42C U44A A49U A60C C79U C96U
G42C U44A G84C U134G
G42C U45G G58U A91C C105U A122U
G42C U53A C72U C93A G143A U146G
G42C U55C G58C G94U A97C C103G A147U
G42C U61G U78C
G42U A49C A97G C99G G100C U134A
G42U C43G C54G G94U U144C A147C
G42U C43U C95U C99G C103A U135G
G42U C57G A98U
G42U C93G A107U
G42U C99U A120C A137C
G42U C99U U109C G140C A142C
G42U C105G A106U
G42U G50A C87G C95G U127A G133U U148G G152U
G42U G58A A91U C114A C129G G141C
G42U G62C U104G G140A
G42U G62U A98G U104G U134C
G42U G71U
G42U G81U A89C C95G C99G U134G G143C U151C
G42U G81U G94C A97G
G42U G83A A138G G140A U145G
G42U G94C C116A U145G
G42U U45A C87A A115G C149G
G42U U45G C76A C85A C125U A147G
G42U U55A C72U C79U U101G A120U
G42U U56A C76U C87A C116U G140C
G42U U61G A73G C125U A142C
G42U U78A
C43A A47C G83C G126U C131U
C43A A52G C75A C87A C114U G117A U139A
C43A C57G G70A C76A C93U G136C A142C
C43A C75G U77G C85U A91U A97C C105U G112U
C43A C76U G92U
C43A C96G C116A G140C
C43A C105G G141C
C43A G59A U61A C85U C132U U139G U148A U151A
C43A G62U C75A C76A C95U
C43A G84A C99A U127A G128U C131A
C43A G100A G143U G152A
C43A U53A A66G G88C
C43A U55A C87G C116A
C43A U61G C72U G86U A89U C103A C123U
C43G A66G G86U U109G
C43G A91U C95A
C43G A121U
C43G C54G G68U G81U C96A A113G
C43G C57U C72G U77C A97G
C43G C75A G88A U109G U144A A147U
C43G C87U C116G G124U
C43G G50U C51G G80U G84U C132U
C43G G83A G140A
C43G G84U G128U G140U
C43G U53A C54U U78G U139A
C43G U148A
C43U A52C C93A C95U
C43U A52C U82A
C43U A64G G81C C93A A106G G117C A120C A137G
C43U A66G G74C G126C U146C
C43U A73U U90A C95U
C43U A89C C99U A137C G141C
C43U A89G C103A A113U A147C C149A
C43U C51U U55A G71A A91C G100A U109G A122U
C43U C54G C93G A142C
C43U C79G G94U A142C U144A
C43U C85G A107C
C43U C93U A98U
C43U C96U A97U
C43U C149G
C43U G46U A47U G59C C87U U90C A98U
C43U G50A C57G U77G C87U C96U C105G A107C C125G
C43U G58A G74A C75U C105A A110G
C43U G58U
C43U G62A G92C A113G
C43U G67U G84U A89U C116U U135G
C43U G68U A73G U109G A121U
C43U G70C G80A C149U
C43U G70C U101C
C43U G86U A97G U111G C132A U135G
C43U U44G C72A C93A C103A A142U C149G
C43U U45G A73G G84U C85A A110G G128A G141U U148G
C43U U53C U55A U56A C57U A121U A122U
C43U U77G C99U A106C U146A
U44A A47U C69A G94A
U44A A52C G88A A119C
U44A A60C C85A U144G U151A
U44A A66U U90G C95A A119U G136C A142G
U44A C51U G92A U104G
U44A C57U C72A G86A A122U
U44A C57U G71A G83A C95A
U44A C63U A64U C87U U134G
U44A C63U G92U C96A U104G A110C
U44A C69A C96A A106G
U44A C72A C96U C114U
U44A C85U A91U U109A A115G
U44A C87A G100A U148A
U44A C87U G124A
U44A G46C G81U C85A C114G A150C
U44A G50A C85U U102C
U44A G58A A91U C103U C116A A138C
U44A G84A A113G C114U U145C
U44A G84U G94C A107U G126A G140U A142C
U44A G86C
U44A G92A A107U U146C
U44A U45A A47C G124A A138C
U44A U53A C54U G84U C108G G136U
U44A U53A G84A A121U
U44A U55A C63A C105G
U44A U55A G92A C125U G141A U145C U146A
U44A U55G A64G A73U U130G
U44A U77G C87U
U44A U82C C85G G88C C105U G140C
U44A U144G
U44C A60U C75U C76G A91G G94A A121G G141C
U44C G81A C93A
U44C U53A C85U A98G
U44G A47U C95A A115U G128U C129U
U44G A52U G65U C87U C93G
U44G A64G C85U
U44G A64U G83A G128A
U44G C69U U78G C131G G141A A142U
U44G C76A G88U C96A A122C
U44G C99A
U44G C125U A147C
U44G G46A U61G C85A A115G U127C
U44G G48A G68A C87A U102G U134G
U44G G58C C69A C79U
U44G G59A G68U A107U U109G
